# Test results from the BET-seq Pho4 binding data (Le et al. 2018).
# The list shows a part of the results. Values were computed here from the reads of four pooled replicates and scatter widely.
# Target: T1, Pho4 (S. cerevisiae) (UniProt P07270)
# T1 sequence: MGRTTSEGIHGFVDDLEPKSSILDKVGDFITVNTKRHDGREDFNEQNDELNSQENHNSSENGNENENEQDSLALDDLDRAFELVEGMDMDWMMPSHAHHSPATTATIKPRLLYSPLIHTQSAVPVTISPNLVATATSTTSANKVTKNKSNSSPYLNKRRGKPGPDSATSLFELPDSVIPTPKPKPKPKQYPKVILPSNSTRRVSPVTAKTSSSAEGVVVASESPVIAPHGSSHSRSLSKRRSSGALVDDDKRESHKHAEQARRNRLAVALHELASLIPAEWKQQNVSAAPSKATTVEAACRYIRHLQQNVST
# Assay: relative binding free energy (BET-seq); higher = weaker binding
# Conditions: reference: library average
row,Sequence,relative binding free energy [kcal/mol]
1,TGGTTCACGTGGGGCT,0.21
2,GGATACACGTGGGAAG,0.08
3,TAGCTCACGTGCGTGG,0.1
4,GATGACACGTGTGGAG,0.12
5,GGGTGCACGTGTGCGT,-0.04
6,CGCAGCACGTGTGTGG,-0.25
7,AATGGCACGTGTGAAA,-0.03
8,ACGCGCACGTGGGGGG,-0.26
9,GAGTGCACGTGTTACG,0.09
10,AGTTACACGTGGTACT,-0.02
11,GGGGGCACGTGTGAGC,-0.04
12,TGCGTCACGTGGTGAT,0.07
13,TTCGACACGTGTGTAT,0.15
14,GGGCACACGTGTTATT,0.13
15,GAATTCACGTGTATGT,0.23
16,GATGTCACGTGTGAAT,0.14
17,GTGGACACGTGGTGAA,0.02
18,CTGTACACGTGGGCGT,-0.01
19,AAGATCACGTGGTGTA,0.08
20,TAGATCACGTGTGTTT,0.22
21,TCGGCCACGTGTTGGT,-0.05
22,TGGATCACGTGTAGTT,0.05
23,GCGGGCACGTGGGCGC,-0.24

row,Sequence,relative binding free energy [kcal/mol]
1,GTATACACGTGTGAGA,0.17
2,AATTTCACGTGGAAGT,0.32
3,TGGAGCACGTGGGGTT,-0.07
4,TGGGACACGTGGCGGC,0.01
5,TGGATCACGTGATGGT,0.39
6,AAGGCCACGTGTTGGG,-0.06
7,CTAATCACGTGGGTAT,-0.01
8,GAGACCACGTGGGGGG,-0.03
9,GATGTCACGTGTCGTT,0.26
10,ACGTTCACGTGTTGGA,0.33
11,GATGACACGTGTGGGC,0.08
12,GGTGTCACGTGCGAGC,0.14
13,TATTGCACGTGAGAGT,0.29
14,GAAGTCACGTGAAGGT,0.4
15,CTTTCCACGTGGGTGT,-0.16
16,GGTGGCACGTGATTGG,0.17
17,AGTATCACGTGGATTG,0.25
18,AATGGCACGTGTAGCG,-0.07
19,TTAGACACGTGTGGCG,0.07
20,GTGTGCACGTGCTGGG,-0.1
21,TTTTTCACGTGAAGTA,0.4
22,AAGGTCACGTGTACGT,0.13
23,CGGTGCACGTGGCTAT,0.06

row,Sequence,relative binding free energy [kcal/mol]
1,TAATGCACGTGGAGAG,-0.05
2,GATGGCACGTGGCTGG,-0.01
3,AGTTGCACGTGATATT,0.03
4,GTATACACGTGGGGTT,-0.05
5,AGAGTCACGTGTGATG,0.24
6,TTTGCCACGTGAGCGT,-0.03
7,TGGTACACGTGTTATC,0.18
8,AGAGGCACGTGGCGAT,-0.22
9,AAGTGCACGTGTGGAT,-0.2
10,TATTGCACGTGTGACT,-0.05
11,TGTGCCACGTGTTTGT,-0.2
12,TAAATCACGTGGTAGA,0.12
13,AGAAGCACGTGAGGTT,0.23
14,TGAGGCACGTGGAACG,-0.13
15,GTAGTCACGTGAGGGT,0.37
16,TAAGTCACGTGTTCTG,0.13
17,AGGTACACGTGATATT,0.11
18,TGAATCACGTGTTATA,0.15
19,TAAGGCACGTGTAGAT,0.08
20,TGCGGCACGTGAAATT,0.14
21,TATATCACGTGCTAGG,0.04
22,TACTGCACGTGATAGT,0.19
23,ATAGTCACGTGTAATG,0.17

row,Sequence,relative binding free energy [kcal/mol]
1,ATTGTCACGTGCAATT,0.16
2,CGTTGCACGTGATGGG,0.08
3,TTTGGCACGTGATGCG,-0.07
4,AGGGCCACGTGAGATG,0.09
5,TTGTGCACGTGGGAGC,-0.1
6,GTTTTCACGTGGCGTC,0.35
7,TAGTGCACGTGTGGGT,0.01
8,TTTTACACGTGTAAGT,0.16
9,AGGGACACGTGGTATG,-0.15
10,CGTGTCACGTGGTTGT,0.06
11,GTTATCACGTGTCTAT,0.27
12,TTTCACACGTGAGAGT,0.4
13,TAATACACGTGTTGTG,0.04
14,TGATTCACGTGGCTGA,0.19
15,GGCTGCACGTGGCGAG,-0.02
16,GGTAGCACGTGGTTGC,0.02
17,AGTATCACGTGGTCAG,0.07
18,AGTTGCACGTGGGTTC,-0.05
19,TTATGCACGTGGGGTG,-0.21
20,GTGGACACGTGATTGG,0.18
21,GTACGCACGTGGATTT,0.05
22,GCTTTCACGTGGGTAT,0.19
23,GTTACCACGTGAGGAG,0.33

row,Sequence,relative binding free energy [kcal/mol]
1,ATTGCCACGTGGGAGT,-0.16
2,GTAAGCACGTGGTGGA,0.11
3,AGTGACACGTGTATGT,-0.15
4,GGTTTCACGTGTATAT,0.32
5,GTTCTCACGTGAATTT,0.42
6,GTTTTCACGTGAGCAG,0.48
7,TGGTGCACGTGTACTT,0.07
8,AGGATCACGTGTTGTT,0.07
9,ATTCTCACGTGGGGTA,0.03
10,ATGTGCACGTGCCAGG,-0.12
11,CGTGGCACGTGGGGAA,-0.23
12,ATTGACACGTGGATAG,0.02
13,AAGTGCACGTGTGGTC,-0.01
14,GGTCGCACGTGCTTGT,0.11
15,TCAATCACGTGTTGTG,0.09
16,TTGGACACGTGTAGAG,0.05
17,GTAATCACGTGTAATG,0.24
18,TATATCACGTGACGTT,0.14
19,TTAGGCACGTGAGTTG,0.06
20,TGTGACACGTGACATG,0
21,TTGGTCACGTGCTTAG,-0.04
22,TCGTTCACGTGGGCGT,0.21
23,TGCGACACGTGAAGGG,0.31
